The source of these data is US20130331325A1 (published 2013).

The target of this assay is T1, ligand-binding domain of human FGFR1c (D142 to R365) (human, UniProt P11362 142-365).
T1 chain: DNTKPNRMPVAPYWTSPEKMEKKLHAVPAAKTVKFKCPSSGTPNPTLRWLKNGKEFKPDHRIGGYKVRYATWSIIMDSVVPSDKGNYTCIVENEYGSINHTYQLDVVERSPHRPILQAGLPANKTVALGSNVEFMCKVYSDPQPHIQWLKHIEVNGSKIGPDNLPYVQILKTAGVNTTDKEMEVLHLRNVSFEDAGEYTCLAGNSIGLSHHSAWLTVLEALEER
Description: SPR.

B1: N-terminally hexahistidine-tagged, mature form of human FGF19 ([…]) (ligand)
chain: not shown
With B1, the affinity, expressed as Kd, was 1910 nM.

B2: human FGF2 ([…]) (ligand)
chain: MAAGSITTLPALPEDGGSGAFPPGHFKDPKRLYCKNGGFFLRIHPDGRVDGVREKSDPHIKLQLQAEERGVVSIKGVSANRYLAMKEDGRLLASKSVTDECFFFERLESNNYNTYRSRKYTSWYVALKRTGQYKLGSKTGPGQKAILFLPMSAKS
B2: the affinity, expressed as Kd, was 58 nM.
